The campaign covered roughly 45,000 compounds. About 65 (0.1%) were called active. The call rests on the fitted dose curve; in most records, active means well fitted activation curve with a large enough effect; inconclusive means small, poorly fitted or top-dose-only effect; inactive means no such curve, though single readings can be large or run the other way. The list shows a part of the results.
Target: Galactocerebrosidase (Homo sapiens) (UniProt P54803)
Experiment: A Novel Cell-Based Assay to Identify Small Molecules for B -Galactocerebrosidase; further: 0% is about no effect; nearly all actives have a fitted effect of over 65% in size
Conditions: 145M-Twi-hGALC-G270D cells (Twitcher mouse brain line with human GALC G270D), HMU-beta-Gal fluorescence, 48 h; series mostly up to 57.5 µM; activation: at the top concentration
Outline: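 Live 145M-Twi cells (Twitcher mouse brain-derived, GALC-null) stably expressing human GALC-G270D, with a wild-type GALC line, were compound-treated. Residual GALC activity was then read as fluorescence from 0.1 mM final HMU-β-gal at pH 5.2; higher signal means activation.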

Sequence of UniProt P54803 (P54803 whole entry, looked up): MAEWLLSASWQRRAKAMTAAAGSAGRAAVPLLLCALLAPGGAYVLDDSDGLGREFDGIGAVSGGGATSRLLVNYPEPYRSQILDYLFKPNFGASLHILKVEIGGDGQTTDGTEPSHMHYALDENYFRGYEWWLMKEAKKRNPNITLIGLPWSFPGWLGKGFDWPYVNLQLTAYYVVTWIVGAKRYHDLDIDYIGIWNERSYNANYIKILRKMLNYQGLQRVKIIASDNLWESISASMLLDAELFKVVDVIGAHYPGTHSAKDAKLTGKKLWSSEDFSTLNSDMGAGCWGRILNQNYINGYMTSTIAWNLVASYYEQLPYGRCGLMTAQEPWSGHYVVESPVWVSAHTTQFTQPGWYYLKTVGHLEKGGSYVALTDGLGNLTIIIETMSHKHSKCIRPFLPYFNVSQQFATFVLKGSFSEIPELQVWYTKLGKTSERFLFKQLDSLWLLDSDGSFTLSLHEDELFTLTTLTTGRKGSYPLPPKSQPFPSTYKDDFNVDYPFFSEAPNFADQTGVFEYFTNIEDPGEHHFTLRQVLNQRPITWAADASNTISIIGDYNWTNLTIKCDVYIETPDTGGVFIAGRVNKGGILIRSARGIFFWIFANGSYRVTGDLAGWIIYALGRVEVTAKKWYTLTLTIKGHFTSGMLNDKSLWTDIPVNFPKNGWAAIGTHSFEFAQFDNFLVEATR

Row | Structure (SMILES) | activation
1 | COC(=O)c1cc2sccc2n1Cc1nc(-c2ccc(Cl)cc2)oc1C | inactive: -10.9%
2 | Cc1cc(C)c(NC(=O)C2CCN(c3nnc(C)c4c(C)n(-c5ccccc5)nc34)CC2)c(C)c1 | inactive: -14.6%
3 | COc1ccccc1NC(=O)C1=C(C)Nc2nc(SCc3ccccc3C)nn2C1CC(C)C (stereo unspecified) | inactive: -18.1%
4 | CC(C(=O)O)c1ccc2c(c1)Cc1cccnc1O2 (stereo unspecified) | inactive: -12.3%
5 | CCc1ccc2oc(C(=O)Nc3nonc3CC)c(C)c2c1 | inactive: -25.1%
6 | Cc1cc(C)cc(NS(=O)(=O)c2ccc3c(c2)CCCN3C(=O)C2CCC2)c1 | inactive: 12.1%
7 | COc1ccc(-n2ncc(C(=O)N3CCc4ccccc4C3)c2C2CCN(C(=O)OC(C)(C)C)CC2)cc1 | inactive: 4%
8 | Cc1oc2ncn(C)c(=O)c2c1C(=O)NCCCN1CCCC(C)C1 (stereo unspecified) | inactive: -1.6%
9 | O=C(Nc1ccc(Br)cc1F)c1ncoc1-c1ccco1 | inactive: -5.79%
10 | C[C@H]1COc2c(C3(N)CC3)c(F)cc3c(=O)c(C(=O)O)cn1c23 | inactive: -26.8%
11 | O=C(CN1C(=O)COc2ccc(S(=O)(=O)N3CCOCC3)cc21)N1CCN(c2ccccc2)CC1 | inactive: -11.3%
12 | COCCCNC(=O)c1ccc2c(=O)n(Cc3ccc(OC)cc3)c(=O)[nH]c2c1 | inactive: -8.95%
13 | COc1ccc(CNC(=O)CN(c2cc(C)cc(C)c2)S(=O)(=O)c2c(C)[nH]c(=O)[nH]c2=O)cc1 | inactive: -6.09%
14 | COc1ccc(-c2cc(C(F)(F)F)n3nc(C(=O)NCC45CC6CC(CC(C6)C4)C5)cc3n2)cc1 | inactive: -8.8%
15 | CCOc1cc(-c2nc(-c3ccc(Br)cc3)no2)cc(OCC)c1OCC | inactive: 2.24%
16 | O=C(COc1ccccc1)N(Cc1cccnc1)c1nc2ccc(F)cc2s1 | inactive: -13.9%
17 | Cc1cccc(CN2CCN(CC(=O)NCc3ccc(Cl)cc3)C2=O)c1 | inactive: -1.88%
18 | COc1ccc(C2=C(C)C(=O)N(Cc3ccc(C(=O)NCc4ccc(C)cc4)cc3)S2(=O)=O)cc1 | inactive: 0.0198%
19 | CC(C)(C)C(=O)Oc1ccc(S(=O)(=O)Nc2ccccc2C(=O)NCC(=O)O)cc1 | inactive: -16.8%
20 | CCOC(=O)c1c(NC(=O)c2cc(C(C)C)on2)sc(C)c1C | inactive: -6.92%
21 | Cc1ccc(S(=O)(=O)C(CNC(=O)c2ccccc2F)c2cccs2)cc1 (stereo unspecified) | inactive: -7.59%
22 | Cc1cccc(CSc2nc3c(c(=O)[nH]2)C(c2cccc(O)c2)CC(=O)N3)c1 (stereo unspecified) | inactive: -12.4%
23 | CSc1ccc2c(c1)C(N1CCN(C)CC1)Cc1ccccc1S2 (stereo unspecified) | inactive: -7.6%
24 | Cc1nc(-c2ccc(C)c(S(=O)(=O)N3CCC(C(=O)NCc4ccc(Cl)cc4)CC3)c2)no1 | inactive: 5.87%

Row | Structure (SMILES) | activation
25 | COc1ccc(CCNC(=O)C2CCCN(c3nc4c(C)cc(C)cc4s3)C2)cc1OC (stereo unspecified) | inactive: -19.4%
26 | O=c1c(N2CCc3ccccc3C2)csc2ccccc12 | inactive: -13%
27 | O=C(NCCc1ccccc1)c1ccc2c(c1)N(Cc1ccccc1F)C(=O)c1ccccc1S2=O (stereo unspecified) | inactive: -6.25%
28 | CC(=O)Nc1ccc(NC(=O)c2oc3ccc4c(c3c2C)C(=O)CC(C)(C)O4)cc1 | inactive: -12.6%
29 | COc1ccc(NC(=O)c2ccc3c(=O)n4nc(Nc5cccc(Cl)c5C)sc4nc3c2)cc1 | inactive: -4.82%
30 | CC(=O)N1CCCc2cc(S(=O)(=O)N3CCCC(C(=O)Nc4cc(Cl)ccc4C)C3)ccc21 (stereo unspecified) | inactive: -21.6%
31 | C=Cc1ccc(Cn2c(C(=O)O)c(CNCc3ccccc3)c3ccc(C)cc32)cc1 | inactive: -13.1%
32 | CC1=C(C(=O)Nc2cccnc2)C(c2ccccc2)n2nc(-c3ccc(O)cc3)nc2N1 (stereo unspecified) | inactive: -6.52%
33 | Cc1ccc(C2CCN(C(=O)c3cnn(-c4ccc(C)cc4)c3C3CCN(C(=O)OC(C)(C)C)CC3)C2)cc1 (stereo unspecified) | inactive: -5.68%
34 | Cc1ccc(-c2ccc(=O)n(CC(=O)Nc3cccc(C#N)c3)n2)cc1 | inactive: -18%
35 | O=C(C1CCCN(S(=O)(=O)c2ccc(Br)s2)C1)N1CCN(c2ccccc2)CC1 (stereo unspecified) | inactive: -8.76%
36 | CNC(=O)C1CCC(Cn2c(=O)c3sccc3n(CC(=O)NCc3ccc(F)cc3)c2=O)CC1 (stereo unspecified) | inactive: -11.5%
37 | CCOc1ccc(-c2nc3c(c(SCC(=O)N4CCCCC4)n2)Cc2ccccc2O3)cc1 | inactive: -15.8%
38 | CCOc1ccccc1NS(=O)(=O)c1ccc(-c2cnc(C3CC3)o2)cc1 | inactive: -30.4%
39 | CCCCCCCCCCCCCCCCN | inactive: -5.68%
40 | Cc1ccc(-c2csc(=Nc3ccc(F)cc3)n2Cc2ccc3c(c2)OCO3)cc1C | inactive: -36.7%
41 | Cc1c(Cl)cccc1NC(=O)c1ncn(-c2ccccc2)n1 | inactive: -4.21%
42 | COc1cccc(NC(=O)CC(C)S(=O)(=O)c2ccc3c(c2)NC(=O)CO3)c1 (stereo unspecified) | inactive: -16.8%
43 | Cc1ccc(NS(=O)(=O)c2ccc3c(c2)CCCN3C(=O)C2CCC2)cc1Cl | inactive: -3.68%
44 | CCOC(=O)C(=O)CCCCCCl | inactive: -14.6%
45 | Nc1c(C(=O)Nc2ccc(C(=O)O)cc2)sc2nc3c(cc12)CCCC3 | inactive: -26%
46 | Cc1cccc(C(=O)Nc2nnc(S(=O)(=O)N(C)Cc3ccco3)s2)c1 | inactive: -25.8%
47 | COc1ccc(CCNC(=O)CSc2nc(-c3ccc(F)cc3)cc(C(F)(F)F)n2)cc1OC | inactive: 1.95%
48 | Cc1nn(-c2ccccc2)c2sc(C(=O)Nc3ccccc3Br)cc12 | inactive: -9%

Row | Structure (SMILES) | activation
49 | CCCN1C[C@H](CSC)C[C@@H]2c3cccc4[nH]cc(c34)C[C@H]21 | inactive: -13.1%
50 | Cc1ccc(NC(=O)CN2C(=O)C3(SCC(=O)N3c3cccc(Cl)c3)c3ccccc32)cc1C (stereo unspecified) | inactive: -17.4%
51 | O=C1OC2(c3ccccc31)c1cc(I)c(O)c(I)c1Oc1c2cc(I)c(O)c1I | inactive: -12.5%
52 | CC(=O)Nc1ccccc1 | inactive: -12.7%
53 | Cc1nc2nncn2c(NCc2ccc(F)cc2)c1C | inactive: -17.2%
54 | COc1cc(OC)cc(C(=O)Nc2ccc(S(=O)(=O)Nc3ncccn3)cc2)c1 | inactive: -2.77%
55 | COCCNc1nc2c(S(=O)(=O)c3ccc(C)c(C)c3)nnn2c2ccc(Cl)cc12 | inactive: 0.717%
56 | CCc1noc(-c2ccc(N3CCCCC3C)c([N+](=O)[O-])c2)n1 (stereo unspecified) | inactive: -1.68%
57 | O=C(Nc1nnc(S(=O)(=O)Nc2ccccc2)s1)c1ccccc1Cl | inactive: -17.6%
58 | Cc1ccc(NC(=O)CCS(=O)(=O)c2cc3c4c(c2)CCN4C(=O)CC3)c(C)c1 | inactive: -6.18%
59 | O=C(NCc1ccc2c(c1)CCN2C(=O)c1ccc(Cl)cc1)c1cccc(F)c1 | inactive: -18.9%
60 | CCCCN(C)C(=O)C1CCC(CNS(=O)(=O)c2ccc(Cl)cc2)CC1 (stereo unspecified) | inactive: -21.1%
61 | CCC(Oc1ccccc1)C(=O)Nc1cc(-c2ccccc2OC)nn1-c1ccccc1 (stereo unspecified) | inactive: -10.2%
62 | CCOC(=O)c1c(S(=O)(=O)NCC(=O)NCc2cccc(C)c2)c(C)n(C)c1C | inactive: 2.98%
63 | Cc1ccc(-c2nc3c(c(SCC(=O)Nc4ccccc4Cl)n2)Cc2c(CO)cnc(C)c2O3)cc1 | inactive: -4.04%
64 | Cc1ccc(CS(=O)(=O)c2ncc(Cl)c(C(=O)Nc3nc4ccc(F)cc4s3)n2)cc1 | inactive: -18.3%
65 | Cc1cccc(N2CCN(C(=O)CCc3c(C)nc4c(c3C)c(=O)n(C)c(=O)n4C)CC2)c1C | inactive: -4.47%
66 | Cc1ccc(OC(=O)c2cc(-c3ccc(Cl)cc3)on2)c(C)c1 | inactive: -14.1%
67 | CCOc1ccc(-n2c(=O)c3sc4ccccc4c3n(Cc3cccc(C)c3)c2=O)cc1 | inactive: 5.27%
68 | O=C(NC1(C(F)(F)F)C(=O)Nc2c1c(=O)[nH]c(=O)n2-c1ccc(F)cc1)c1ccccc1 (stereo unspecified) | inactive: -3.91%
69 | COc1ccc(C2C(=O)N(C3CCCCC3)CC(=O)N2CCC2=CCCCC2)cc1 (stereo unspecified) | inactive: -11.8%
70 | COc1ccc(-n2cc(C(=O)OCc3ccc(F)c(F)c3)c3ccccc3c2=O)cc1 | inactive: 4.9%
71 | CCc1ccc(NS(=O)(=O)c2ccc3[nH]cc(C(=O)NCCc4cccc(C)c4)c(=O)c3c2)cc1 | inactive: -11.7%
72 | COc1ccc2c(c1)sc1ncc(C(=O)NCc3ccc(Cl)cc3)c(=O)n12 | inactive: -7.06%

Row | Structure (SMILES) | activation
73 | CCN1CCN(c2oc(/C=C/c3ccc(OC)c(OC)c3)nc2C#N)CC1 | inactive: -2.51%
74 | O=C(NCc1ccccc1)C(=O)NCC(c1ccc2c(c1)OCO2)N1CCOCC1 (stereo unspecified) | inactive: -9.43%
75 | Clc1ccc(-c2cn3ncsc3n2)cc1 | inactive: -14.7%
76 | CCOc1ccc(CCNC(=O)Cn2ncn3c(cc4sc(C)cc43)c2=O)cc1OCC | inactive: -1.81%
77 | CC1CCC(NC(=O)c2ccc3c(c2)N(Cc2ccccc2F)C(=O)c2ccccc2S3=O)CC1 (stereo unspecified) | inactive: -14.3%
78 | C[C@]12CCC(=O)C=C1CC[C@@H]1[C@@H]2[C@@H](O)C[C@@]2(C)[C@H]1CC[C@]2(O)C(=O)CO | inactive: -16%
79 | CCCCN1C(=O)c2[nH]nc(-c3ccccc3O)c2C1c1cc(Br)c(O)c(OC)c1 (stereo unspecified) | inactive: -3.14%
80 | O=c1c2cccnc2n(Cc2ccccc2F)c(=O)n1Cc1ccc(F)cc1 | inactive: -7.16%
81 | COc1cccc(CNC(=O)c2ccc3nc(N4CCCCC4)sc3c2)c1OC | inactive: -7.63%
82 | COc1ccccc1NC(=O)c1cc(S(=O)(=O)NCCc2ccccc2)ccc1F | inactive: -2.28%
83 | Cc1ccc(CN2CCSc3ccc(C(=O)N4CCN(c5ccc(Cl)cc5)CC4)cc32)cc1 | inactive: -9.45%
84 | CCOCCCNC(=O)C(c1ccc(OC)cc1)N(Cc1ccc2c(c1)OCO2)C(=O)c1ccc(NC(C)=O)cc1 (stereo unspecified) | inactive: -22.7%
85 | O=S(=O)(Nc1ccc2nc(-c3ccc(F)cc3)oc2c1)c1ccccc1 | inactive: -13.4%
86 | CCCCc1nn2c(=O)cc(COC(=O)c3ccc(NC(=O)c4ccccc4Cl)cc3)nc2s1 | inactive: -14.6%
87 | COc1ccc(NC(=O)Cn2c3ncccc3c(=O)n2-c2ccc(C)c(C)c2)c(OC)c1 | inactive: -16.2%
88 | CC(=O)Nc1cc(C(=O)NCc2ccccc2Cl)ccc1Sc1ccc(F)cc1 | inactive: -7.88%
89 | Cc1cc(C)cc(NC(=O)c2cc(S(=O)(=O)NCCC3=CCCCC3)ccc2F)c1 | inactive: -4.77%
90 | Cc1ccc(NC(=O)c2cc(S(=O)(=O)N3CCCCC3)c[nH]2)cc1N(C)C | inactive: -15.6%
91 | Cc1nnc(NC(=O)CSc2nc3c([nH]c4ccccc43)c(=O)n2-c2ccc(Cl)cc2)s1 | inactive: -6.05%
92 | Cc1ccc2[nH]c(=O)c3cc(C(=O)N(C)c4ccc(Br)cc4)sc3c2c1 | inactive: 2.83%
93 | COc1ccc2c(c1)CC(C(=O)NCc1ccc(F)cc1)CO2 (stereo unspecified) | inactive: -11.5%
94 | Cc1cc(OCC(=O)Nc2ccc(C(=O)OC3CCCCC3)cc2)cc(C)c1Cl | inactive: -8.26%
95 | COc1ccc(CCNCc2c(C(=O)O)c(C)n(Cc3c(F)cccc3Cl)c2C)cc1OC | inactive: -9.03%
96 | CCOc1ccc2nc(N3CCN(C(=O)c4ccc5c(c4)CCCC5)CC3)sc2c1 | inactive: -20%

Source: PubChem BioAssay AID1159614 (National Center for Advancing Translational Sciences (NCATS), 2016)
